The record followed here is publication PMC11030525, “Phosphorylation-Driven Epichaperome Assembly: A Critical Regulator of Cellular Adaptability and Proliferation” (Research Square, 2024).

The test concerns the target T1, mCherry-HSP90β-S226E, S255E mutant (UniProt P08238, S226E | S255E).
T1 construct: HSP90β; Expressed beside the endogenous wild-type HSP90; also called mCherry-HSP90β-EE; EE mutant; source: mouse ESCs (SILAC-labelled), transfected, in lysate; HEK293, transfected, in lysate; not shown: mCherry, N-terminal, kept
The test can be described thus: affinity purification with mass spectrometry; mCherry-HSP90β EE or AA precipitated on RFP Selector resin from lysates of SILAC-labelled (heavy or light) mouse ESCs, 4°C, 90 min; heavy and light samples precipitated separately, then combined; SDS-PAGE and quantitative MS. The conditions noted are these: partners not purified.

T1 sequence (P08238 whole entry S226E/S255E): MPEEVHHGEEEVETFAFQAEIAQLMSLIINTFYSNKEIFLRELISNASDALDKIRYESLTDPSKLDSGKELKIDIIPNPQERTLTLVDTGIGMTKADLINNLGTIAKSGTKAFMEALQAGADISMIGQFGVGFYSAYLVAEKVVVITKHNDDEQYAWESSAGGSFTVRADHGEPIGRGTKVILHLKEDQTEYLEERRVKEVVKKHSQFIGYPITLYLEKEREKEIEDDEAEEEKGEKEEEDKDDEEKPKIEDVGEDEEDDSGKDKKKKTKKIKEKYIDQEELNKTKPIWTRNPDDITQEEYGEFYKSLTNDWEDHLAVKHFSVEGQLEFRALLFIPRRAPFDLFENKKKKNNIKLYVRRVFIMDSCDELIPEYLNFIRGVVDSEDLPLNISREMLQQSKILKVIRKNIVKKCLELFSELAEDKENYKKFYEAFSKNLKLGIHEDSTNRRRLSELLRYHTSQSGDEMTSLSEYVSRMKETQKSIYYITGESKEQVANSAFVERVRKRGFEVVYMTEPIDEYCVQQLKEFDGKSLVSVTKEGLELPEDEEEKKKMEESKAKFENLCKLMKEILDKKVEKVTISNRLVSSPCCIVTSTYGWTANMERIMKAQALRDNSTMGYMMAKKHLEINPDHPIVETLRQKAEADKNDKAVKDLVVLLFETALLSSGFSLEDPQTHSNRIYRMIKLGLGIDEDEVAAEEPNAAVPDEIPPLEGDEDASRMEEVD

B1: Oct4, mouse (natural protein)
chain: not shown
notes: Oct4 transcription factor, mouse, endogenous in embryonic stem cells; source: endogenous, mouse ESC lysate
Take B1: the “fold change against m7 (SILAC ratio EE : AA)” value came to 1.4 fold.
